Test results reported in the CheMixHub viscosity set.
The source holds more than one record for some entries. Only these are listed. An entry can have further records. Values that stand side by side are repeats in other runs, samples, wells, individuals or studies. Marks in square brackets tell the records apart. Letters hold for one entry only.

ClC(Cl)(Cl)Cl
viscosity
Details	298.15 K	303.15 K	308.15 K	313.15 K	318.15 K
101 kPa	0.8876 mPa·s, 0.883 mPa·s, 0.9019 mPa·s, 0.893 mPa·s, 0.893 mPa·s, 0.9019 mPa·s, 0.948 mPa·s, 0.9149 mPa·s, 0.9275 mPa·s, 0.908 mPa·s, 0.905 mPa·s, 0.9088 mPa·s, 0.902 mPa·s, 0.909 mPa·s, 0.902 mPa·s, 0.908 mPa·s, 0.906 mPa·s, 0.9397 mPa·s, 0.883 mPa·s, 0.883 mPa·s, 0.8963 mPa·s, 0.9077 mPa·s, 0.9074 mPa·s, 0.9058 mPa·s, 0.9089 mPa·s, 0.83 mPa·s, 0.9 mPa·s, 0.901 mPa·s [several studies]	0.796 mPa·s, 0.842 mPa·s, 0.906 mPa·s, 0.8535 mPa·s, 0.8702 mPa·s, 0.83 mPa·s, 0.849 mPa·s, 0.881 mPa·s, 0.83 mPa·s, 0.831 mPa·s [several studies]	0.785 mPa·s [study A] and 0.7817 mPa·s [study B] and 0.794 mPa·s [study C] and 0.786 mPa·s [study D] and 0.8162 mPa·s [study E] and 0.8266 mPa·s [study F]	0.796 mPa·s [study A] and 0.745 mPa·s [study B] and 0.7676 mPa·s [study C] and 0.7754 mPa·s [study D] and 0.7477 mPa·s [study E]	0.692 mPa·s [study A] and 0.6866 mPa·s [study B] and 0.699 mPa·s [study C] and 0.691 mPa·s [study D]
101.33 kPa	0.887 mPa·s [study A] and 0.9019 mPa·s [study B] and 0.821 mPa·s [study C] and 0.905 mPa·s [study D]	–	–	–	–
